Measurements published in the supplement of paper PMC4967469.
A lower IC50 marks a more sensitive line; where the fit passes the top or lowest dose, that dose stands as a limit. AUC is the area under the same curve over the 256-fold range up to the top dose, as a fraction: 1 means no effect, lower means more sensitive. For part of these data: Where the top dose is marked as inferred, it was calculated from the reported fits. For part of these data: Where an entry number is given, a second screen of the drug exists; the two often differ.

How the values were obtained:
Test in all cases: Viability of human cancer cell lines after 72 h of drug (GDSC screen)
[1] = compound: CC1(C)CNc2cc(NC(=O)c3cccnc3NCc3ccncc3)ccc21 [AMG-706]; details: top dose 2 µM; top dose inferred
Experimental: (§1)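 Human cancer cell lines in 384-well plates, medium with 10% serum, drug for 72 h over a 256-fold dose range (nine 2-fold or five 4-fold steps up to the top dose). Adherent lines were fixed and stained with the nucleic acid dye Syto60, suspension lines read with resazurin; signal relative to control wells, capped at 0 and 100%. One two-parameter sigmoid per drug and line, fitted in a mixed model over all curves with the slope shared within a line.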

[2] = compound: CC1=C2C[C@H]3[C@@H](CC=C4C[C@@H](O)CC[C@@]43C)[C@@H]2CC[C@]12O[C@@H]1C[C@H](C)CN[C@H]1[C@H]2C [Cyclopamine]; details: top dose 16 µM; top dose inferred
Experimental: as §1

[3] = compound: CCOc1nc(NC(=O)Cc2cc(OC)ccc2OC)cc(N)c1C#N [JNK Inhibitor VIII]; details: top dose 10 µM; top dose inferred
Experimental: as §1

[4] = compound: CN1CCN(c2ccc([N+](=O)[O-])c3no[n+]([O-])c23)CC1 [NSC-207895]; details: top dose 20 µM; top dose inferred
Experimental: as §1

[5] = compound: COC(=O)[C@H](CCSC)NC(=O)c1ccc(NC[C@@H](N)CS)cc1-c1ccccc1 [FTI-277]; details: top dose 1.024 µM; top dose inferred
Experimental: as §1

[6] = compound: COCC[n+]1c2c(n(Cc3cnccn3)c1C)C(=O)c1ccccc1C2=O [YM155]; details: top dose 5.12 µM
Experimental: as §1

[7] = compound: C[C@]1(O)C[C@@H](c2nc(-c3ccc4ccc(-c5ccccc5)nc4c3)c3c(N)nccn32)C1 [OSI-906]; details: top dose 2.56 µM; top dose inferred
Experimental: as §1

[8] = compound: Cc1ccc(C(=O)N(CCCN)[C@@H](c2nc3cc(Cl)ccc3c(=O)n2Cc2ccccc2)C(C)C)cc1 [SB-715992]; details: top dose 0.128 µM; top dose inferred
Experimental: as §1

[9] = compound: Cc1sc2c(c1C)C(c1ccc(Cl)cc1)=N[C@@H](CC(=O)OC(C)(C)C)c1nnc(C)n1-2 [JQ1]
Experimental: as §1

[10] = compound: O=C(/C=C/c1cccc(S(=O)(=O)Nc2ccccc2)c1)NO [Belinostat]; details: top dose 20 µM; top dose inferred
Experimental: as §1

[11] = compound: OCCCNc1cc(-c2ccnc(Nc3cccc(Cl)c3)n2)ccn1 [CGP-60474]; details: top dose 0.256 µM; top dose inferred
Experimental: as §1

[12] = compound: c1ccc2c(CCNc3ccc(Nc4ccncc4)cc3)c[nH]c2c1 [JNJ-26854165]; details: top dose 10 µM
Experimental: as §1

[13] = top dose 1 µM, screen: GDSC drug entry 1218, top dose inferred
[14] = top dose 2.56 µM, screen: GDSC drug entry 163

| Cell Line | AUC [1] | IC50 [1] | AUC [2] | IC50 [2] | AUC [3] | IC50 [3] | AUC [4] | IC50 [4] | AUC [5] | IC50 [5] | AUC [6] | IC50 [6] | AUC [7] | IC50 [7] | AUC [8] | IC50 [8] | AUC [9, 13] | IC50 [9, 13] | AUC [9, 14] | IC50 [9, 14] | AUC [10] | IC50 [10] | AUC [11] | IC50 [11] | AUC [12] | IC50 [12] |
| --- | --- | --- | --- | --- | --- | --- | --- | --- | --- | --- | --- | --- | --- | --- | --- | --- | --- | --- | --- | --- | --- | --- | --- | --- | --- | --- |
| A101D (melanoma, adherent) | 0.968 | > 2000 nM | 0.981 | > 16000 nM | 0.973 | > 10000 nM | 0.929 | > 20000 nM | 0.939 | > 1020 nM | 0.094 | < 20 nM | 0.974 | > 2560 nM | 0.898 | > 128 nM | 0.923 | > 1000 nM | 0.627 | 389 nM | 0.508 | 1320 nM | 0.553 | 23 nM | 0.908 | > 10000 nM |
| 697 (lymphoblastic leukaemia, suspension) | 0.983 | > 2000 nM | 0.923 | > 16000 nM | 0.979 | > 10000 nM | 0.835 | 9650 nM | 0.988 | > 1020 nM | 0.013 | < 20 nM | 0.955 | > 2560 nM | 0.465 | 6.57 nM |  |  |  |  | 0.094 | 89.7 nM | 0.54 | 20.2 nM | 0.819 | 4280 nM |
| LXF-289 (lung adenocarcinoma, adherent) | 0.911 | > 2000 nM | 0.956 | > 16000 nM | 0.965 | > 10000 nM | 0.98 | > 20000 nM | 0.976 | > 1020 nM | 0.039 | < 20 nM | 0.938 | > 2560 nM | 0.726 | 34.6 nM | 0.952 | > 1000 nM | 0.731 | 719 nM | 0.459 | 969 nM | 0.67 | 47.2 nM | 0.835 | 6390 nM |
| NCI-H1975 (lung adenocarcinoma, adherent) | 0.978 | > 2000 nM | 0.983 | > 16000 nM | 0.979 | > 10000 nM | 0.927 | > 20000 nM | 0.978 | > 1020 nM | 0.032 | < 20 nM | 0.784 | 1250 nM | 0.81 | 79.4 nM | 0.98 | > 1000 nM | 0.786 | 1280 nM | 0.395 | 615 nM | 0.709 | 68.3 nM | 0.902 | > 10000 nM |
| MZ7-mel (melanoma, adherent) | 0.977 | > 2000 nM | 0.967 | > 16000 nM | 0.987 | > 10000 nM | 0.896 | > 20000 nM | 0.975 | > 1020 nM | 0.15 | 25 nM | 0.98 | > 2560 nM | 0.972 | > 128 nM | 0.985 | > 1000 nM | 0.591 | 287 nM | 0.259 | 249 nM | 0.954 | > 256 nM | 0.838 | 7110 nM |
| NCI-H1648 (lung adenocarcinoma, adherent) | 0.859 | 1820 nM | 0.955 | > 16000 nM | 0.924 | > 10000 nM | 0.943 | > 20000 nM | 0.981 | > 1020 nM | 0.107 | < 20 nM | 0.875 | > 2560 nM | 0.653 | 21.9 nM | 0.984 | > 1000 nM | 0.858 | 2300 nM | 0.33 | 407 nM | 0.706 | 63.7 nM | 0.872 | > 10000 nM |
| JAR (urogenital system, adherent) | 0.986 | > 2000 nM | 0.969 | > 16000 nM | 0.988 | > 10000 nM | 0.735 | 5760 nM | 0.985 | > 1020 nM | 0.026 | < 20 nM | 0.988 | > 2560 nM | 0.701 | 29.1 nM | 0.985 | > 1000 nM | 0.987 | > 2560 nM | 0.36 | 518 nM | 0.756 | 86.1 nM | 0.864 | 8410 nM |
| Calu-6 (lung adenocarcinoma, adherent) | 0.984 | > 2000 nM | 0.975 | > 16000 nM | 0.984 | > 10000 nM | 0.959 | > 20000 nM | 0.976 | > 1020 nM | 0.036 | < 20 nM | 0.965 | > 2560 nM | 0.783 | 62.4 nM | 0.973 | > 1000 nM | 0.804 | 1510 nM | 0.34 | 418 nM | 0.856 | > 256 nM | 0.934 | > 10000 nM |
| EVSA-T (breast, adherent) | 0.951 | > 2000 nM | 0.883 | 12900 nM | 0.976 | > 10000 nM | 0.802 | 8240 nM | 0.991 | > 1020 nM | 0.082 | < 20 nM | 0.991 | > 2560 nM | 0.836 | 68.6 nM | 0.991 | > 1000 nM | 0.717 | 592 nM | 0.273 | 317 nM | 0.82 | 120 nM | 0.94 | > 10000 nM |
| NOMO-1 (acute myeloid leukaemia, suspension) | 0.982 | > 2000 nM | 0.968 | > 16000 nM | 0.974 | > 10000 nM | 0.806 | 11900 nM | 0.982 | > 1020 nM | 0.119 | < 20 nM | 0.919 | > 2560 nM | 0.667 | 25 nM |  |  |  |  | 0.37 | 520 nM | 0.777 | 118 nM | 0.845 | 8770 nM |
